Experimental data reported in the supplement of paper PMC11417369.
The other results are listed elsewhere or left out.

Test system: PF3D7_0420300 AP2 domain 1 (GST-tagged)
Experiment: gcPBM binding intensity (ln(normalized median fluorescence intensity)); higher = stronger DNA binding
Outline: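 Probes on an Agilent 4 × 180k array were primer-extended, double-stranded and 36 bp long, taken from intergenic genomic regions, with negative controls added. GST-tagged P. falciparum DNA-binding domains from E. coli, about 25 μg on average, were applied to the array for 1 h in 1× PBS containing 1% milk, 0.2 mg/ml BSA, 0.5% salmon testes DNA and 0.03% Triton X-100. Binding intensity, obtained after Alexa488 anti-GST antibody detection and a 488 nm scan, is the highest Masliner-normalised natural-log median intensity across replicate spots of either probe orientation.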

Sequence | gcPBM binding intensity (ln)
AAAAGATTGCTCCGCATGCACCTCCAAAAGTTCCTT [GTGCAC_site9993] | 9.08
TTTGCTTCCAAAAGTCGTACAAAAAATATTAAATAT [XGTACX_site4171] | 8.87
ACAGAATACATATACACACATACAAAAAAGTGCATA [CACACA_site987] | 9.78
CATTATGTTGTAAATGCACACATACATATACACAGT [CACACA_site8990] | 9.51
TCATACTGTATATTTTGTACTTATATATATATTATA [XGTACX_site6136] | 9.52
TTATTTTGTTTTAAAAGTACACACTTTTAATTAGAT [XGTACX_site2271] | 9.22
ATAATAAGCAAACACACACACACAAAAAAAAAAAAA [CACACA_site720] | 10.2
TATATAAACACGTACACACACATATAGGTATTTATA [CACACA_site7615] | 9.97
CTTTTCTTTTTTTTTTGTACATAAAATTATTCCTTA [XGTACX_site3924] | 9.21
TTTTGTTGCTCTTTTTTTTTTTTTTTTAACTGTATG [CACACA_negctrl_site1072] | 9.52
AATATAGTCACACATACACACATATAGATTTATATA [CACACA_site7223] | 9.7
AAAAAAAAAAAAAGGTGTACATAAGTAAATTCATAT [XGTACX_site4206] | 9.47
AACCAATATGTGTATACACACATAAATATAAATATA [CACACA_site7729] | 9.57
TATCAAAATTAGTATACACACAAAATTATTCAAATA [CACACA_site2232] | 9.43
TAAAAGGAAAAAAAAGCACACACAATATTACTTGAA [CACACA_site8831] | 9.77
TATACATATAAATTGTGTACACATATATATATATTT [XGTACX_site7875] | 9.2
AATATATAAATTAATACATGCACATATAGAAAGGGA [TGCATGCA_site472] | 9.7
CTTTTTACTTAATACACACACACACTAGAAAAAAAA [CACACA_site4680] | 10
AAACAAAAAATTTAAAGTACAAAAATTATGATTGTT [XGTACX_site465] | 9.32
AAAAAATTAATATTGACACACATTTTTAAGAATAAT [CACACA_site239] | 9.32
CAAAAGGATAGGCACACACACACACCCATATATATA [CACACA_site2199] | 10.1
AATATGTCTATATTTTTTATATGGAAATATTATAAA [GTGCAC_negctrl_site700] | 8.81

Sequence | gcPBM binding intensity (ln)
TTTTTTTTTTTTTTTTTTTTTTTATCTATTATTTAT [XGTACX_negctrl_site496] | 8.34
AATACTATTATTATTGCACACTTATTATCCCTCGGA [CACACA_site4262] | 9.4
TATCCATTTCTTTATGTGCACATTAAATATATTTGT | 9.48
TATAAAAATATTTCTACACACATTAATATATATATA [CACACA_site1150] | 9.46
AATATATAGAGAGATATGCACACTGTATGAATGCAC [CACACA_site2677] | 9.4
TATATTAATAATAAGTGTACATATATATATATTTTT [XGTACX_site288] | 9.19
TATTTTTTCTTTCATTGTACTTTTTTTTTGTTTTGT [XGTACX_site4081] | 9.69
ATTTGTAAAAAATTCATACACACGTCTTATTTTTAA [CACACA_site1390] | 9.34
AATGAGAAATATAATTGTACATATATTTATTTTCAT [XGTACX_site3669] | 9.16
TATTTTGTAATAATTACACACGGAATTATAACAGAA [CACACA_site2355] | 9.47
TCTTAATTTGTTATATGTACATAATATAATTGTATA [XGTACX_site5184] | 9.21
TTATATTAATAAAAAGAAAATCATTTTTTCTTTTAT [CACACA_negctrl_site1595] | 8.66
ATATATATATTTATATTTATATGTAAATATCAACGT [TGCATGCA_negctrl_site32] | 9.2
ATTGTGTTAATGAAATGTACATTTTCTCTACGTTAA [XGTACX_site1322] | 9.18
AATATTATGTATAACCGTACATTATATATATAATAA [XGTACX_site1594] | 9.21
ATTAAAATAATTTAATTTCTTAGACACAATTTGTAA [GTGCAC_negctrl_site331] | 8.85
TTAAACTTGTTTTGGATGCACTATATAATTCATTTT [GTGCAC_site9549] | 9.17
TCCTACATATTATAGTGTACATTTTCATGTTCATAT [XGTACX_site4308] | 9.42
AAGTATTATATATTTTGTACATATATAAAACCACAA [XGTACX_site5508] | 9.29
TATTTATATTTATATACACACATACATATTTATATT [CACACA_site6535] | 9.57
TATGTTCCTTTTTGTTGTACTGAAAAATTATGTTCA [XGTACX_site3981] | 9.2
ATAATATAAATTAATTTACACACTAATAAATATATA [CACACA_site9259] | 9.33

Sequence | gcPBM binding intensity (ln)
ATTTTAAATTTATCTGTGCACAGTATTATATAAGCA [GTGCAC_site9806] | 9.07
TATATATATATATGTGCACACCAATTGTATGTAATA [CACACA_site3888] | 9.45
AATATAAAATCAAGAAATTAAAAAAAAACAGAAAAC [CACACA_negctrl_site1004] | 9.8
ACAAGATAATAGAGAAGTACTAATAAACATACACAA [XGTACX_site6617] | 9.5
TCATAAAAGATTAAGTGTACATGTGCTACTCTTATA [XGTACX_site6255] | 9.07
AGGTTTATAAAAAAAAAAAAAAAAAAAAAAAAAAAA [GTGCAC_negctrl_site113] | 8.63
ACCCAGTGTATTCATAGTACACGCTCATATATTATC [XGTACX_site423] | 9.52
AATATTTAAAACATATGTACTGAAAAACAATTGGAC [XGTACX_site6360] | 9.61
AACAAGTTGCATGGTGCACACATGTATATATATCTA [CACACA_site2548] | 9.44
AAAATGTATGTAGTCTGTACAAATACTCTATAAATA [XGTACX_site6475] | 9.22
TACAATTTTACTCATAAACACACATATATATGTTAT [CACACA_site9031] | 9.35
TATATATATATATATAGTACGCACACATAGTTGCAA [XGTACX_site5875] | 9.49
TATTTTTTATGATTAACACACACACTAATAAAAAAA [CACACA_site9370] | 9.77
ATTCTTACTAATATCGCACACACATATGTAGACGGG [CACACA_site88] | 9.59
AATGAATATATTTATTGTACATATATGAATATTGCA [XGTACX_site8689] | 9.2
ATTTTTTTATTTTTGTGTACTTATAAGAATATTAAT [XGTACX_site4850] | 9.33
AAAAAAAAAAAAAAAAGTACAAAAAGGAGAAAGATA [XGTACX_site7862] | 9.48
AATATATAAATTGACACACACATATATACCTATATA [CACACA_site4803] | 9.86
AATATAAACACAAACACACACATATAGATTTATATA [CACACA_site6263] | 9.94
CACAATGGTTTATATACACACTGTTGCAAATTCTTC [CACACA_site5659] | 9.45
TTATACCTATATTTAACACACATTTGATAAAGTGCC [CACACA_site6732] | 9.33
AAAAAATTTGTTTATTGTACAGAAAGAATTATTATA [XGTACX_site6549] | 8.95

Sequence | gcPBM binding intensity (ln)
TTGTAGGTAAATATGTGTACGCATTATTATTCTTAA [XGTACX_site216] | 9.26
GAGAGAGAAATAAAAAGTACATACATATATATACAT [XGTACX_site2267] | 9.29
AAAAAAAACAGACACATACACACAAAAATGTTATAA [CACACA_site82] | 9.86
ACCATTTTTATGTATAAACACACGTACCCGCACTAA [CACACA_site1604] | 9.36
TGGAGATTTTTAAAGACACACAGGTAAGAATAATAA [CACACA_site1582] | 9.31
AAACCAAAAATAACACGTACAAAAATAAAAAGTATA [XGTACX_site4261] | 9.84
AAAACATATTTTAAAAGTACTTGAAAAAAAATTTTC [XGTACX_site3940] | 8.98
ATTATGCACGGACACACACACACACCCCTAAAAAAT [CACACA_site5426] | 10.2
TGTTAACCACAAAAATAAAATAAAATAAAAATAATA [XGTACX_negctrl_site535] | 9.24
TGATAAATATTATGTTGTACTTTCTGCCCTTCACAT [XGTACX_site5168] | 9.39
TATGCTATTATATATGTACACACCAATTTATTTATA [CACACA_site3918] | 9.56
TTTCCCATAGGAAAAACACACATATATTATAGATAA [CACACA_site7019] | 9.24
GAGAGAGAAATATGCACACATAAGGGAAATAAATAA [CACACA_site1153] | 9.57
TTTTGATGCTTTAAATGTACAAGGGTTCTTATGAAA [XGTACX_site831] | 8.96
GAAAAAAAAAGTTAAGCACACACATGAATAAATAAT [CACACA_site8179] | 9.84
TGTATATAATTTATATGTACATATATTTTATTTTGT [XGTACX_site1905] | 9.27
AAAAAAAAAAAATAGAAAAAAAAATAAAATAAAAAA [CACACA_negctrl_site562] | 9.15
GACTTTTTCATTTTTAGTACACATATATATTTCCCT [XGTACX_site3511] | 9.82
AAAAAAAAAAAACATACACACACACTAATATTTATA [CACACA_site8038] | 9.88
ATATATTTTTAATATGCACACAAGAATACATTCACA [CACACA_site914] | 9.4
TTAAAAAATCACAACACACACACACCCAAAAAAAAA [CACACA_site1445] | 9.88
TTTTAAAAAATATAATAATATAAATATTTTATACGT [TGCATGCA_negctrl_site252] | 8.84
